Test results as given in ChEMBL document CHEMBL4888484, “Replenishing the malaria drug discovery pipeline: Screening and hit evaluation of the MMV Hit Generation Library 1 (HGL1) against asexual blood stage Plasmodium falciparum ,using a nano luciferase reporter read-out” (2022).
In all, about 150,000 compounds went through this assay and about 540 (0.36%) showed an effect of 50% or more. The list shows a part of the results.

System: Plasmodium falciparum
Assay: Primary screen in NF54 nanoGlo assay, in single point, at 2uM, 72h; a lower Z score goes with more inhibition
Type: functional, Erythrocyte
Conditions: timepoint 72 hour

Q: For `CN(C(=O)Cn1cccc(S(=O)(=O)N2CCCCC2)c1=O)c1ccc(F)cc1`, which “% Inhibition” value is on record?
A: -2%

Q: What about the Z score of the same compound?
A: 0.37

Q: `O=C(Nc1nc2ccccc2s1)N1CCCCCC1` was tested. Which “% Inhibition” value did it give?
A: -16%

Q: What about the Z score of the same compound?
A: 2.45

Q: With `CC(=O)N1CCN(C(=O)c2nn(-c3ccc(C(C)C)cc3)c(=O)n(Cc3cccc(C)c3)c2=O)CC1` as the compound, how does the “% Inhibition” value read?
A: -7%

Q: What about the Z score of the same compound?
A: 0.96

Q: How did the “% Inhibition” value turn out when `Cn1c(C(=O)N2CCOCC2)cc2cc(S(=O)(=O)N3CCCCC3)ccc21` was run?
A: -12%

Q: What about the Z score of the same compound?
A: 2.31

Q: How did the “% Inhibition” value turn out when `O=C(NCCc1ccc(Cl)s1)c1cnccn1` was run?
A: -13%

Q: And the Z score?
A: 2.48

Q: Which “% Inhibition” value does the source give for `CCc1ccccc1NC(=O)N1CC(F)(F)C[C@H]1CN1CCCCC1` here?
A: -14%

Q: And the Z score?
A: 2.44

Q: Which “% Inhibition” value does the source give for `O=C(NC[C@H]1CCCO1)c1coc(CN2CCN(c3ncccn3)CC2)n1` here?
A: 2%

Q: What about the Z score of the same compound?
A: -0.28

Q: `C[C@@H](Cc1cccs1)C(=O)N1CCC(Nc2cccnc2)CC1` was tested. Which “% Inhibition” value did it give?
A: -17%

Q: And the Z score?
A: 1.44

Q: What does the source list for `Cc1ccc(C(=O)N[C@@H](Cc2c[nH]c3ccccc23)C(=O)O)cc1F`?
A: % Inhibition: -8%; Z score: 1.49

Q: What does the source list for `c1ccc(CNc2cc(-c3ccccc3)nc(-c3ccccc3)n2)cc1`?
A: % Inhibition: -9%; Z score: 1.22

Q: Which “% Inhibition” value does the source give for `Cc1nc(C2CCC2)nn1Cc1cnn(-c2ccccc2)n1` here?
A: -21%

Q: What about the Z score of the same compound?
A: 2.36

Q: `O=C(c1cnc(O)cn1)N1C[C@@H]2CC[C@H]1CN(CCCc1ccccc1)C2` was tested. Which “% Inhibition” value did it give?
A: 6%

Q: What about the Z score of the same compound?
A: -0.82

Q: Which “% Inhibition” value does the source give for `CC(C)N1CCCC[C@@H]1CCNC(=O)CCC(F)(F)F` here?
A: -3%

Q: And the Z score?
A: 0.57

Q: How did the “% Inhibition” value turn out when `Cc1nc(N)nc(N2CCN(Cc3ccco3)CC2)c1CCC(=O)O` was run?
A: -6%

Q: And the Z score?
A: 1.13

Q: What does the source list for `Cc1ccc(CN(CCO)C(=O)c2cccc3c2CCOC3)o1`?
A: % Inhibition: -15%; Z score: 2.09

Q: Which results are given for `CN1CCO[C@H](C(=O)Nc2cc(-c3c(F)cccc3F)no2)C1`?
A: % Inhibition: -6%; Z score: 0.69

Q: With `CCN(Cc1ccncc1)[C@@H](C(=O)O)c1ccc(OC(C)C)cc1` as the compound, how does the “% Inhibition” value read?
A: -15%

Q: What about the Z score of the same compound?
A: 2

Q: What does the source list for `COc1ccc(CS(=O)(=O)Cc2nccn2C)c(Cl)c1`?
A: % Inhibition: -6%; Z score: 0.62

Q: How did the “% Inhibition” value turn out when `Cc1ccccc1N1C(=O)C2C(O)CCCN2C1=O` (stereo unspecified) was run?
A: 5%

Q: And the Z score?
A: -0.59

Q: With `N[C@@H]1C[C@@H]2CC(C(=O)NCC3CCC=CCC3)C[C@@H]21` (stereo partly specified) as the compound, how does the “% Inhibition” value read?
A: -3%

Q: And the Z score?
A: 0.65

Q: Which results are given for `Cc1cnccc1C(=O)NC[C@@H]1C[C@H]1c1cccnc1`?
A: % Inhibition: -14%; Z score: 1.85

Q: Which results are given for `CC(NC(=O)C1COCCO1)c1cccc(-n2cccn2)c1` (stereo unspecified)?
A: % Inhibition: -18%; Z score: 3.59

Q: What does the source list for `O=C1O[C@@H]2C[C@H]3C[C@@H]2[C@@H]1[C@H]3C(=O)Nc1cccc(C(=O)N2CCN(c3ccccc3F)CC2)c1`?
A: % Inhibition: -6%; Z score: 1.16

Q: How did the “% Inhibition” value turn out when `N#CCCN1CC[C@H](OCCCc2ccccc2)C1` was run?
A: -5%

Q: And the Z score?
A: 0.64

Q: `Cc1ccsc1C(=O)N1CCC[C@H]1c1ccc2c(c1)OCCCO2` was tested. Which “% Inhibition” value did it give?
A: 1%

Q: And the Z score?
A: -0.07

Q: For `C[C@H](NCc1cc(F)c(O)c(F)c1)c1ccccc1N1CCOCC1`, which “% Inhibition” value is on record?
A: 10%

Q: And the Z score?
A: -1.14

Q: Which results are given for `CC1(CO)CCCC1NCc1cnc(N2CCOCC2)nc1` (stereo unspecified)?
A: % Inhibition: 33%; Z score: -0.35

Q: What does the source list for `CC(=O)c1ccc(NC(=O)c2cc3n(n2)CCCO3)cc1`?
A: % Inhibition: -7%; Z score: 1.13

Q: Which results are given for `COc1cccc(-c2nc(C3CCN(C(=O)c4cccc(OC)c4OC)CC3)no2)c1`?
A: % Inhibition: -9%; Z score: 1.14

Q: What does the source list for `O=C(Nc1nc2cc3c(cc2s1)OCCO3)C1CCCCC1`?
A: % Inhibition: -6%; Z score: 0.9

Q: How did the “% Inhibition” value turn out when `CN(C(=O)c1c(F)c(F)cc(F)c1F)c1ccnn1C` was run?
A: -18%

Q: And the Z score?
A: 1.86

Q: `Cn1cc(CCC(=O)N2CC3(CCCC3)c3cccc(Cl)c32)cn1` was tested. Which “% Inhibition” value did it give?
A: -4%

Q: What about the Z score of the same compound?
A: 0.69

Q: Which “% Inhibition” value does the source give for `O=C1CCCN1CCC(=O)N1CCO[C@@H](Cc2ccccc2Cl)C1` here?
A: -10%

Q: And the Z score?
A: 1.45

Q: With `CN(C(=O)[C@H]1CCCOC1)c1ccnn1C` as the compound, how does the “% Inhibition” value read?
A: -4%

Q: And the Z score?
A: 0.62

Q: Which results are given for `Cc1nnsc1CNC(=O)[C@H](O)c1ccccc1Cl`?
A: % Inhibition: -2%; Z score: 0.48

Q: How did the “% Inhibition” value turn out when `COc1ccccc1CN1CCC[C@H]1c1nc(-c2ccc(F)cn2)no1` was run?
A: 11%

Q: And the Z score?
A: -1.24

Q: How did the “% Inhibition” value turn out when `Cc1ncsc1CCN(C)Cc1ccc(-c2ccccc2C#N)o1` was run?
A: -14%

Q: And the Z score?
A: 1.32

Q: Which results are given for `Cc1nnnn1CCOc1cc(F)cc(Br)c1`?
A: % Inhibition: 2%; Z score: -0.15

Q: What does the source list for `Cc1ccc(-c2ncco2)cc1NC(=O)N[C@H](C(N)=O)C(C)(C)C`?
A: % Inhibition: -2%; Z score: 0.41

Q: For `Cc1cc(C(=O)N(C)Cc2nccn2C)cc(O)n1`, which “% Inhibition” value is on record?
A: -2%

Q: What about the Z score of the same compound?
A: 0.31

Q: Which “% Inhibition” value does the source give for `N#Cc1nc(NC(=O)Cc2cccc(F)c2)[nH]c1C#N` here?
A: -4%

Q: What about the Z score of the same compound?
A: 0.38

Q: With `CCc1cc(C(=O)N2[C@@H]3CC[C@H]2C[C@@H](c2ccc(OC)cc2)C3)ccn1` as the compound, how does the “% Inhibition” value read?
A: -12%

Q: And the Z score?
A: 1.49

Q: For `c1cc2cc(-c3ccc(CN4CCCC4)cn3)ccc2[nH]1`, which “% Inhibition” value is on record?
A: -1%

Q: What about the Z score of the same compound?
A: 0.18
